Data set [1] concerns Salmonella typhimurium TA100. The following applies: for mutagenic activity toward TA100 (in words): 100 ng/plate or less.
Data set [2] deals with Salmonella typhimurium TA100. The following applies: cited from earlier work.

Molecules are shown by their SMILES. Like-named read-outs stand apart in the source and are kept apart here.

As to `ONc1ncnc2nc[nH]c12` [6-Hydroxylaminopurine], the “histidine revertants/plate, TA100” value in data set [1] (with (+) S9, 1 ng/plate) was 170 + 22 histidine revertants/plate. In addition, the “mutagenicity toward TA100” value in data set [2] (ref 35 (McCartney et al.)) is “mutagenic”.

Turning to `ONc1ncnc2c1ncn2Cc1ccccc1` [9-Benzyl-6-hydroxylaminopurine], the results for the “mutagenic activity toward TA100 (in words)” value in data set [1] (absence of S9) and in data set [1] (presence of S9) were “highly active” and “even more active”, respectively.

In the case of `Cn1cnc2c(N)ncnc21` [9-Methyladenine], the “histidine revertants/plate, TA100” value in data set [1] (without (-) S9, 100 ng/plate) is listed as 111 + 5 histidine revertants/plate.

Turning to `Nc1c2[nH]cnc2nc[n+]1[O-]` [Adenine-1-N-oxide], the “histidine revertants/plate, TA100” value in data set [1] (with (+) S9, 100 ng/plate) is 117 + 20 histidine revertants/plate.

Take `Nc1ncnc2nc[nH]c12` [Adenine]: the “histidine revertants/plate, TA100” value in data set [1] (without (-) S9, 100 ng/plate) is on record as 108 + 15 histidine revertants/plate. Besides, the “mutagenicity toward TA100” value in data set [2] is “inactive”.

These data come from paper PMC1521118 (Environmental Health Perspectives, 1993).
